± gives the standard deviation of the averaged measurements. Some of the results follow.

This note sets out measurements from the supplement of paper PMC11417369.

The experiment relates to PfAP2-G AP2 domain (GST-tagged). Description: gcPBM binding intensity (ln(normalized median fluorescence intensity)); higher = stronger DNA binding. In short, it runs like this:
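An Agilent 4 × 180k array carrying primer-extended double-stranded 36-bp intergenic genomic probes and negative controls received GST-tagged P. falciparum DNA-binding domains expressed in E. coli, about 25 μg on average, for 1 h. The binding buffer contained 1× PBS, 1% milk, 0.2 mg/ml BSA, 0.5% salmon testes DNA and 0.03% Triton X-100. Binding intensity is the top Masliner-normalised natural-log median intensity across replicate spots of either probe orientation, read after Alexa488 anti-GST antibody staining and a 488 nm scan.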
Consider “TGATATTTTATTATTAAAATATATACATATATATAT [CACACA_negctrl_site1456]”, for which the “gcPBM binding intensity (ln)” value amounted to 9.96 ± 0.5.
For the sequence “ATAAAAATAAAATGGACACACATATATACCTATTTG [CACACA_site5761]”, the “gcPBM binding intensity (ln)” value is 10.8 ± 0.47.
For “AGAATAGAATAAAAAACACACATTTACAACATTATT [CACACA_site3894]” the value was 9.72 ± 0.28; for “TATTTACACAAAATAAAATATATTATATATATATAT [TGCATGCA_negctrl_site381]”, 9.68 ± 0.085; for “TTGCACAGATTAATCAAAAATTTTAAACCAAATATA [XGTACX_negctrl_site38]”, 9.995 ± 0.035.
Consider “AAATAAATAATATTCACACATAAAAAAAATGGAGTT [CACACA_site4525]”, for which the “gcPBM binding intensity (ln)” value was 9.81 ± 0.099.
With “TATTTATACATAGGTGGTACTACTTTAAACAAAAAA [XGTACX_site5062]”, the “gcPBM binding intensity (ln)” value is 11.3 ± 0.91.
Consider “TATATGGAGAGATATGCACACTGTATGAATGCCCCC [CACACA_site8853]”, for which the “gcPBM binding intensity (ln)” value was determined as 11.1 ± 0.67.
For “ATGTTGTTCATAAATATATTATTTTTAAATGTACAA [GTGCAC_negctrl_site507]”, the “gcPBM binding intensity (ln)” value amounted to 10.8 ± 0.38.
The value for “CACGCACGCACATACACACACATACACATATAAATA [CACACA_site6907]” was 10.6 ± 0.5.
As for “AATTATATTGGTTGTAGTACTAAAAGTAAGTTAATG [XGTACX_site33]”, the “gcPBM binding intensity (ln)” value was 11.4 ± 0.84.
In the case of “TATTCACTGATATGTTGTACATAAAAAAAATTAAAT [XGTACX_site6128]”, the “gcPBM binding intensity (ln)” value worked out at 11.3 ± 0.85.
For “GTATTTAGATGATTAACACACATATGTGTATTAATA [CACACA_site6733]” the value was 10.3 ± 0.16; for “ATATATATTATTGAATGTACATAATTATTTAATAGT [XGTACX_site4971]”, 11.1 ± 0.61.
With “ATATATTCACGTTAATGTACACATAATAAATTATAT [XGTACX_site5481]”, the “gcPBM binding intensity (ln)” value turned out to be 11.3 ± 0.88.
As for “TTATATAAGATATTTCGTACACATTCAAAAATTATG [XGTACX_site7375]”, the “gcPBM binding intensity (ln)” value came to 11.1 ± 0.67.
As to “AATAAAATATAAGGGGGTACGGAGAAAGGATACTAT [XGTACX_site7733]”, the “gcPBM binding intensity (ln)” value stood at 11.2 ± 0.75.
“TGAAAAAAGAAAAATACACACATATAATATAATATA [CACACA_site2255]”: the “gcPBM binding intensity (ln)” value came out at 9.74 ± 0.071.
In the case of “TTTTTTATATTGATATTTATTAAATATGAAATGTTA [GTGCAC_negctrl_site405]”, the “gcPBM binding intensity (ln)” value turned out to be 9.78 ± 0.45.
On to “CATACACCCCAACACACACACACACCCATATATAAT [CACACA_site8097]”, for which the “gcPBM binding intensity (ln)” value was 10.3 ± 0.36.
The value for “AAAAAAAAAAAAAAAAGTACATATATTATATATATA [XGTACX_site2983]” was 11.3 ± 0.93.
As to “TGTCTTTATATATATTTATTTTTTAGTATTACATAA [CACACA_negctrl_site21]”, the “gcPBM binding intensity (ln)” value was 9.86.
As to “ATTTTCATATTTTTATGTACATATTATAAGAATATA [XGTACX_site3691]”, the “gcPBM binding intensity (ln)” value was 11.4 ± 0.71.
As to “TATCTTTTTTTTAATACACACAAATTTATGAAAGTA [CACACA_site7879]”, the “gcPBM binding intensity (ln)” value came out at 10.2 ± 0.33.
With “ATAATTCTTTATTATAGTACACAAACTTTCAAAACA [XGTACX_site3597]”, the “gcPBM binding intensity (ln)” value was determined as 11.3 ± 0.89.
Regarding “CTATACATATTATATAGTACTTTATTATTATGACTA [XGTACX_site1382]”, the “gcPBM binding intensity (ln)” value came out at 10.8 ± 0.45.
Regarding “TATATAAGAGGAAAAAGTACAGAAAAACAAAGAGAA [XGTACX_site2926]”, the “gcPBM binding intensity (ln)” value turned out to be 11.4 ± 0.8.
For “TGTATTTATAGCAATACACACATAACAATAAATATA [CACACA_site3328]”, the “gcPBM binding intensity (ln)” value is 10.04 ± 0.078.
“TTTATTCCAGTATTCACACACGAATAACCACATAAC [CACACA_site5104]”: the “gcPBM binding intensity (ln)” value was found to be 10.3 ± 0.28.
In the case of “TTTATTTTAAAATTTACACACAAAAGGATTTATAGA [CACACA_site2338]”, the “gcPBM binding intensity (ln)” value was 10.1 ± 0.15.
For the sequence “TATATTAATTAACAGTGTACAAAAAAAAATAAAAAA [XGTACX_site3702]”, the “gcPBM binding intensity (ln)” value was 11.2 ± 0.8.
On to “AAAATAAAAAGAAATTGTACGTATAATAATATATTT [XGTACX_site7593]”, for which the “gcPBM binding intensity (ln)” value is 11.4 ± 0.79.
As to “AGGATACACGGACACACACACATATATATATATATA [CACACA_site4654]”, the “gcPBM binding intensity (ln)” value was 11.3 ± 0.86.
As to “TATTAAAATAACATACGTACATAAGTATATAAAAAA [XGTACX_site1769]”, the “gcPBM binding intensity (ln)” value was 11.6 ± 0.93.
“ACAAAACATATATTCTGTACATATATAATGGTGACT [XGTACX_site6796]”: the “gcPBM binding intensity (ln)” value stood at 10.9 ± 0.57.
For “TTTATATCTTATTATAGGAAAATGAATATTTTCTCT [TGCATGCA_negctrl_site478]”, the “gcPBM binding intensity (ln)” value worked out at 9.665 ± 0.064.
For the sequence “AAGAAAATATAAATATGTACTTAATAATTTATTTAT [XGTACX_site8100]”, the “gcPBM binding intensity (ln)” value amounted to 11.1 ± 0.67.
Turning to “AAAAAAGAGGGATACACACAAACATATATATATATA [CACACA_site2243]”, the “gcPBM binding intensity (ln)” value was determined as 10.1 ± 0.24.
With “TTATGTAAATAATTTTGTACTTAAATTATTATATAA [XGTACX_site1491]”, the “gcPBM binding intensity (ln)” value was determined as 11 ± 0.74.
For the sequence “CAACTTTTTGAAAATTGTACATGACATATATATATA [XGTACX_site260]”, the “gcPBM binding intensity (ln)” value was found to be 11.1 ± 0.78.
As to “AAAAAAAATATGATGAGTACACAATAATACATGCAA [XGTACX_site6999]”, the “gcPBM binding intensity (ln)” value worked out at 11.5 ± 0.88.
In the case of “TGTATAAATAAATGCGTACACACTAATAAAAAAAAA [CACACA_site858]”, the “gcPBM binding intensity (ln)” value is 11.6 ± 0.8.
Turning to “ATAGATAAAAAATTATTTATTTAGAATTTTTATGTA [CACACA_negctrl_site400]”, the “gcPBM binding intensity (ln)” value came to 9.48 ± 0.16.
Turning to GTGGTTATATATTAAGTGCATATTATAATTTTAAAC, the “gcPBM binding intensity (ln)” value amounted to 10.3 ± 0.19.
Consider “AATATCTAAAATGTGTGTACATAATATTTTTAATAT [XGTACX_site3831]”, for which the “gcPBM binding intensity (ln)” value came out at 11.7 ± 1.1.
Regarding “ATATATATATTAAATACACACATTTTTGATTAGGTT [CACACA_site3119]”, the “gcPBM binding intensity (ln)” value is 10 ± 0.23.
For “TTTGAATCCTTATATACACACATTATGTAATATTAT [CACACA_site561]” the value was 10.03 ± 0.014.
Regarding “AAAAGAGAAATGGGCACACACACACCGATTATATAT [CACACA_site4942]”, the “gcPBM binding intensity (ln)” value was found to be 10.5 ± 0.25.
For “AATACACCCAGACACACACACAAAAAAAAAAAAAAA [CACACA_site513]” the value was 10.1 ± 0.58; for “ATTACATTTTTAATGCGTACTAAAAATGTATATAAG [XGTACX_site6384]”, 11.3 ± 0.95.
As to “AATATAAAAATGTTTACACACACACCCAAATATATT [CACACA_site2511]”, the “gcPBM binding intensity (ln)” value amounted to 10.21 ± 0.099.
“AGAATTACTTAAAAAAGTACATAAAATTATTTAAAA [XGTACX_site2205]”: the “gcPBM binding intensity (ln)” value was found to be 11.4 ± 0.86.
As for “AATATGAAATATATTACACACATTTATATGTTGAAA [CACACA_site1427]”, the “gcPBM binding intensity (ln)” value came to 9.69 ± 0.16.
Turning to “TTATTATCTCTTGTCATTATTATATACTAAGAAGTA [CACACA_negctrl_site410]”, the “gcPBM binding intensity (ln)” value is 9.95 ± 0.071.
For “TATTAATAAATATGTTTACACACGAAAATACATTTT [CACACA_site1012]”, the “gcPBM binding intensity (ln)” value is 9.9 ± 0.13.
In the case of “ATATTAAGAATGTATACATGCATATATATATAGTAC [TGCATGCA_site219]”, the “gcPBM binding intensity (ln)” value turned out to be 10.5 ± 0.24.
